Each structure is given as a SMILES string. The full ranking holds about 110,000 compounds; the median of “z-score” is about -0.1, and the highest 2% start at about 2. The list shows a part of the results. The source made the active and inactive calls.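 How the source made its calls: active means z-score in the third read window above 3 or below -3; inactive means the rest.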

This test concerns the target Metabotropic glutamate receptor 8 (Rattus norvegicus) (UniProt P70579). The test can be described thus: rat mGluR8 modulators via GIRK flux, primary screen, cell-based, thallium flux, HTS (AID 488969). The settings on record: HEK293 rat mGluR8, GIRK (G protein-gated inwardly rectifying potassium channel) thallium flux, FluoZin2; at 10 µM; stronger effect = higher value; submaximal glutamate (EC20) added with thallium.
UniProt P70579, sequence (P70579 whole entry, looked up): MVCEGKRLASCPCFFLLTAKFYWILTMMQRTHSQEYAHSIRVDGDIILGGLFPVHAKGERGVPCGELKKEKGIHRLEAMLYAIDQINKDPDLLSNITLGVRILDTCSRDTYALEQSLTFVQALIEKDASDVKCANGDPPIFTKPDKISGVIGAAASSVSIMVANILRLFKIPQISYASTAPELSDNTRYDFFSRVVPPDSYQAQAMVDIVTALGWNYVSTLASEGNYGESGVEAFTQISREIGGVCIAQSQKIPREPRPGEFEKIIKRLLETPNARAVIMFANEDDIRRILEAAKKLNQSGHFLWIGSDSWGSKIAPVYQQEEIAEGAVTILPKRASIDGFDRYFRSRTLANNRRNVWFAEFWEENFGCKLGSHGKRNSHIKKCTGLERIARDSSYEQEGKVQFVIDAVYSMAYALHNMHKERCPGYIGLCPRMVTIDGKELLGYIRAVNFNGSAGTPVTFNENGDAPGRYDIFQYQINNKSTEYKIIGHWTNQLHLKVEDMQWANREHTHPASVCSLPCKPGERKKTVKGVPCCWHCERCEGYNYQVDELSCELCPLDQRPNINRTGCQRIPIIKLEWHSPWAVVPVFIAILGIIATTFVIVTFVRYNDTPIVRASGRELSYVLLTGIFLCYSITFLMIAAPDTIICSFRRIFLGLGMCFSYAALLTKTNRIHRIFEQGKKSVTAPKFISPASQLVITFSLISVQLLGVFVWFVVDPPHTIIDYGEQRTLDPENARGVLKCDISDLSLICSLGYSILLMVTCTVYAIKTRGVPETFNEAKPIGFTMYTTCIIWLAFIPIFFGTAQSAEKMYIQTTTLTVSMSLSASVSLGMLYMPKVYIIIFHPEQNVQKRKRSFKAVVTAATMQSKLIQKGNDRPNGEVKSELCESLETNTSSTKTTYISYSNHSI
In the case of `COc1ccc(C)cc1-n1nnnc1SCC(=O)NNC(=O)c1ccc([N+](=O)[O-])cc1`, the z-score was -0.112.

For the compound `COc1ccc(/C=N/n2c(SC)nnc(C(C)(C)C)c2=O)cc1`, the z-score is -0.584. Next, `Cc1cc(C)nc(N=Nc2c(O)n(Cc3ccc(Cl)cc3)c3ccccc23)n1`: 0.0163.

In turn, `CCCCNc1nc(-c2ccccc2)c(C(=O)OCC)cc1C#N` showed a z-score of -0.076. Next, `Cn1c(=O)oc2cc(S(=O)(=O)NC3CCCc4ccccc43)ccc21` (stereo unspecified): 0.254; `CCN(CC)c1ccc2cc(C=O)c(=O)oc2c1`: active: 17.6; `Cc1ccc(NC2=NCC(=O)N2CCc2ccccc2)cc1C`: -0.657. `COc1ccc(-c2nc(-c3ccccc3)nc(Cl)c2C#N)cc1` registered a z-score of -0.171. Next, `Cc1cc(NC(=O)CCC(=O)N(CC(=O)NCC2CCCO2)c2ccccc2C)no1` (stereo unspecified): -0.592. The same measure for `O=C(N1CCOCC1)N1CCN(c2nc(-c3ccc(F)cc3)cs2)CC1`: 0.208; for `COC(=O)N/N=C/c1ccc(-c2cc(Cl)cc(Cl)c2)o1`: -2.64; for `CN(c1ccccc1C(N)=O)S(=O)(=O)c1ccccc1`: 0.25. `Cc1ccc(/C=N/NC(=O)CNC(=O)Cc2ccccc2)o1` showed a z-score of 0.985. Consider `CCc1nnc(NC(=O)c2ccc(S(=O)(=O)N(CC(C)C)CC(C)C)cc2)o1`, for which the z-score stood at 0.456. Take `O=C1Cc2ccccc2N1c1c(Cl)cccc1Cl`: the z-score is -0.114. Next, `CC(NO)C(C)(C)NO` (stereo unspecified): 0.256; `CC1(C)N([O-])C(c2cccs2)=C[N+]1=O`: 0.211; `O=c1c2ccccc2c(-c2ccccc2)nn1-c1ccc(Cl)c(Cl)c1`: -0.224. Compound `CC(OC(=O)c1ccc2c(c1)C(=O)N(Cc1ccncc1)C2=O)C(=O)Nc1cccc(Cl)c1Cl` (stereo unspecified) showed a z-score of 0.365. Next, `O=C(CSc1ncnc2scc(-c3ccc(Cl)cc3)c12)NCc1ccc2c(c1)OCO2`: -0.262.

As for `Cc1cc(C)n(C2=NS(=O)(=O)c3ccccc32)n1`, the z-score is -0.0598. Next, `C=CCn1c(CCNC(=O)c2cccs2)nnc1SCC(=O)Nc1cccc(Cl)c1C`: -0.184; `COc1cccc(OCc2nc3c4cnn(-c5ccccc5)c4ncn3n2)c1`: 0.0686; `CS(=O)(=O)Nc1ccc(C(=O)NCc2ccc3c(c2)OCO3)cc1`: -0.182. Next, `O=C(O)c1cccc(CSc2nnc(COc3ccccc3)o2)c1`: -0.828; `O=C(CC(c1ccccc1)c1ccccc1O)NCc1ccco1` (stereo unspecified): -0.155; `N#Cc1cccc(Oc2ccc(-c3cnc4ccccc4n3)cc2)c1C#N`: 0.258. With `CN(C)c1cccc(NC(=O)C2(C)CC2(Cl)Cl)c1` (stereo unspecified), the z-score is -0.194. The same measure for `COc1cc2[nH]c(=O)n(Cc3ccc(C(=O)NC4CCCC4)cc3)c(=O)c2cc1OC`: 0.0931; for `COc1ccc(OC)c(NC(=O)CSc2nnnn2-c2ccccc2F)c1`: -0.231; for `CCOC(=O)C(=O)/C(=C\N(C)C)c1onc(-c2ccccc2Cl)c1C(=O)OC`: 0.152.
